Test results published in patent US20220267474A1, “METHODS FOR IMPROVING C[…] TREATING CARDIOVASCULAR DISEASE” (ANTIDOTE THERAPEUTICS, INC., priority 2018, published 2022).

Columns and labels:
[1] = enantiomer preference of nicotine-binding antibodies; conditions: S-(−)-nicotine versus R-(+)-nicotine
From the text: (§1) Nicotine has two enantiomers: S-(−)-nicotine and R-(+)-nicotine, with the S-enantiomer known to be the most physiologically active. […] For instance, in some embodiments, a nicotine-binding antibody selectively binds to S-(−)-nicotine with a higher affinity than it binds to R-(+)-nicotine, while in some embodiments a nicotine-binding antibody may bind S-(−)-nicotine and substantially not bind to R-(+)-nicotine. […] Alternatively, in some embodiments, a nicotine-binding antibody used as disclosed herein may selectively bind to R-(+)-nicotine with a higher affinity than it binds to S-(−)-nicotine, while in some embodiments a nicotine-binding antibody used as disclosed herein may bind to R-(+)-nicotine and substantially not bind to S-(−)-nicotine.

[2] = brain nicotine levels following repeated nicotine exposure after pretreatment with 8D1-IgG4; format: in vivo; conditions: rats
Description: Nicotine concentration in the brain is maintained at low levels by anti-nicotine antibodies even after repeated administration of nicotine which simulates very heavy smoking.
In a follow-up study using the 40 and 80 mg/kg antibody doses and the same nicotine dose, a >90% reduction of nicotine distribution to the brain was maintained even after repeated doses of nicotine (5 repeated doses, one every 10 min for 50 min) simulating very heavy smoking, as shown in FIG. 2. Indeed, at an 80 mg/kg dose of the antibody, brain nicotine levels were reduced by 92% 3 minutes after the fifth dose of nicotine.

[3] = system: nicotine-induced increases in MAP; assay: change in mean arterial pressure before and after nicotine challenge in rats pretreated with 8D1-IgG4; format: in vivo
Description: Anti-nicotine antibodies prevent a large increase in mean arterial pressure (MAP) induced by nicotine, when administered prior to nicotine exposure.
Pretreatment with anti-nicotine antibodies prevents large increases in MAP even after repeated administration of nicotine.
(§2) Rats (n=4) were administered a single dose of 8D1-IgG4 in the evening of Day 1, 2, 4, and 8, and a single dose of nicotine each morning for 5 days, and six repeated doses on the 9th day, as shown in the table below.
These effects remained constant even with repeated administration of nicotine. For example, 80 mg/kg 8D1-IgG4 was administered intravenously in the evening before challenge with nicotine. The next day, the same rat was administered 6 nicotine doses (0.03 mg/kg, iv) once an hour for 5 h to simulate heavy smoking (equivalent to 12 cigs). The difference in MAP was measure by taking measurements 2 minutes before vs. 2 minutes after each nicotine dose.

[4] = 8D1-IgG4 plasma level during repeated iv dosing; format: in vivo; conditions: rats
Description: as §2

[5] = binding affinity (KD) of nicotine-binding antibodies for R-(+)-nicotine
From the text: as §1

[6] = brain and serum nicotine levels after single nicotine exposure and pretreatment with 8D1-IgG4; format: in vivo; conditions: rats
From the text: The disclosed anti-nicotine agents sequester nicotine in serum and prevent it from entering into, for example, the brain, where it can produce physiological effects.

B1: 8D1-IgG4: IgG4 (S228P) nicotine-binding antibody, heavy SEQ ID NO: 37, light SEQ ID NO: 38 (antibody)
heavy: QVRLQESGPGLVKPSGTLSLTCAVSGGSIYSSNWWTWVRQPPGKGLEWVGEIHIRGTTYYNPSLNSRVTISLDKSNNQVSLRLTSVTAADSAVYYCVSQEVGGPDLWGQGTLVTVSSASTKGPSVFPLAPCSRSTSESTAALGCLVKDYFPEPVTVSWNSGALTSGVHTFPAVLQSSGLYSLSSVVTVPSSSLGTKTYTCNVDHKPSNTKVDKRV[human IgG4 Fc with S228P (EU numbers) not shown]
light: NFMLTQPHSVSESPGKTVTISCTRSGGSIATYYVQWYQQRPGSAPTNVIYKYDQRPSGVPDRFSGSIDSSSNSASLTISGLKTEDEADYYCQSYDNNIQVFGGGTKLTVLGQPKAAPSVTLFPPSSEELQANKATLVCLISDFYPGAVTVAWKADGSPVKAGVETTKPSKQSNNKYAASSYLSLTPEQWKSHRSYSCQVTHEGSTVEKTVAPTECS
- enantiomer binding preference [1]: preferentially bind to S-(−)-nicotine
- brain nicotine levels reduced by ([2]; 80 mg/kg antibody, 3 minutes after the fifth dose of nicotine): 92%
- reduction of nicotine distribution to the brain ([2]; 40 and 80 mg/kg antibody, 5 repeated nicotine doses 0.03 mg/kg, one every 10 min): > 90%
- increase in MAP after repeated nicotine doses ([3]; rat, 80 mg/kg 8D1-IgG4 iv the evening before, 6 nicotine doses 0.03 mg/kg iv once an hour): very little increase in MAP
- nicotine-induced increases in mean arterial pressure (MAP) ([3]; rats, single nicotine dose 0.03 mg/kg iv, MAP 2 minutes before and after nicotine, 0.03 mg/kg): significantly blocks nicotine-induced increases in MAP; also recorded: significant dose-dependent attenuation
- 8D1-IgG4 plasma level (AM) ([4]; Day 2, after 20 mg/kg iv PM Day 1): 305 µg/mL
- 8D1-IgG4 plasma level (AM) ([4]; Day 3, after 40 mg/kg iv PM Day 2): 770 µg/mL
- 8D1-IgG4 plasma level (AM) ([4]; Day 4): 550 µg/mL
- 8D1-IgG4 plasma level (AM) ([4]; Day 5, after 40 mg/kg iv PM Day 4): 885 µg/mL
- 8D1-IgG4 plasma level (AM) ([4]; Day 9, after 80 mg/kg iv PM Day 8): 1635 µg/mL
- Kd [5]: 92 nM
- reduction in nicotine levels in the brain ([6]; highest antibody dose (40 mg/kg) pretreatment, single 0.03 mg/kg nicotine, sacrificed after 3 minutes): > 95%
- serum nicotine concentration ([6]; increasing doses of antibody, single nicotine exposure (FIG. 1 top panel)): increased serum concentrations of nicotine

“Also recorded” adds a separate entry of the source.
